PubChem BioAssay AID624296 (National Center for Advancing Translational Sciences (NCATS), 2012)
The whole screen tested about 350,000 compounds, of which about 9,900 (2.8%) were called active. Inconclusive means that the source gave no clear call. Such entries were picked first, then a sample of the others. Calls follow the shape of the dose curve; as a rule, active = well fitted activation curve with a large enough effect; inconclusive = small, poorly fitted or top-dose-only effect; inactive = no such curve, though single readings can be large or run the other way. No potency is given beside an inconclusive call; the fits are too rough.

Assay: A quantitative high throughput screen for small molecules that induce DNA re-replication in MCF 10a normal breast cells. Also: nearly all actives have a fitted effect of over 50% in size.
Details: MCF 10A DNA re-replication, Hoechst nuclear intensity, 48 h; series mostly up to 46.1 µM
Potency is read from the fitted curve at half-maximal effect; tags tell the direction and shape of the fitted curve.

Question: For `Cc1ccc(S(=O)(=O)N2CCCCC2)cc1NC(=O)Cn1cnc2c1c(=O)n(C)c(=O)n2C`, which Potency is on record?
Answer: inactive

Question: Which Potency does the source give for `COc1ccc(C2c3c(-c4ccccc4O)n[nH]c3C(=O)N2Cc2ccco2)cc1` (configuration not stated) here?
Answer: inconclusive [activator, single point]

Question: For `CN(C(=O)COC(=O)c1cc[n+]([O-])cc1)c1ccccc1`, which Potency is on record?
Answer: inactive

Question: With `C/C(=N/NC(=O)c1sc(NS(=O)(=O)c2ccccc2)nc1C)c1ccc(F)cc1` as the molecule, how does the Potency read?
Answer: inconclusive [activator, partial curve, poor fit]

Question: For `COc1ccc(CCC(C)NCc2ccc(C(F)(F)F)cc2)cc1` (configuration not stated), which Potency is on record?
Answer: inconclusive [activator, partial curve, poor fit]

Question: For `CCOC(=O)Nc1ccc2c(c1)N(C(=O)CN)c1ccccc1CC2`, which Potency is on record?
Answer: inconclusive [activator, full curve, poor fit]

Question: Which Potency does the source give for `Cc1ccc(NS(=O)(=O)c2ccc(OCC(=O)Nc3cccc([N+](=O)[O-])c3)c(C)c2)cc1` here?
Answer: inconclusive [activator, partial curve, poor fit]

Question: With `O=S(=O)(c1ccccc1)N1CCN(c2ncnc3scc(-c4ccccc4)c23)CC1` as the molecule, how does the Potency read?
Answer: inconclusive [activator, single point]

Question: Which Potency does the source give for `CC(C)CC(c1nnnn1Cc1ccco1)N1CCN(c2cccc(Cl)c2)CC1` (configuration not stated) here?
Answer: inconclusive [activator, single point]

Question: For `Cc1ccc(CSCC(=O)N2CCN(Cc3ccc4c(c3)OCO4)CC2)cc1`, which Potency is on record?
Answer: inconclusive [activator, single point]

Question: For `O=C1CC(/C=C/c2ccc(Cl)cc2)=Nc2ccccc2N1`, which Potency is on record?
Answer: inconclusive [activator, single point]

Question: With `N/C(=N\NS(=O)(=O)c1ccccc1)c1ccccn1` as the molecule, how does the Potency read?
Answer: inconclusive [activator, single point]

Question: Which Potency does the source give for `O=C(/C=C/c1ccc2c(c1)OCO2)Nc1nc2ccccc2s1` here?
Answer: inconclusive [activator, full curve, poor fit]

Question: Which Potency does the source give for `COc1ccc(N2C(=O)CC(Sc3nnc(-c4ccccc4F)n3C)C2=O)cc1` (configuration not stated) here?
Answer: inconclusive [activator, single point]

Question: With `COCCNC(=O)/C(C#N)=C/c1cc(C(C)C)c(OC)cc1C` as the molecule, how does the Potency read?
Answer: inactive

Question: With `COc1cc(Cn2c(-c3ccc(O)c(OC)c3)nc3ccccc32)ccc1O` as the molecule, how does the Potency read?
Answer: inactive

Question: For `CC(NC(=O)COc1ccc(/C=N/NC(=O)C(=O)Nc2ccccc2Br)cc1)c1ccccc1` (configuration not stated), which Potency is on record?
Answer: inconclusive [activator, single point]

Question: For `Cc1ccc(NS(=O)(=O)c2cccc(C(=O)Nc3cc(C)on3)c2)cc1`, which Potency is on record?
Answer: inactive

Question: With `Cc1cc(NCCCN(C)C)n2c(nc3ccccc32)c1C#N` as the molecule, how does the Potency read?
Answer: inconclusive [activator, partial curve, poor fit]

Question: With `NC(=O)c1ccc(NCCc2ccccc2)c([N+](=O)[O-])c1` as the molecule, how does the Potency read?
Answer: inconclusive [activator, single point]

Question: With `CCOC(=O)C(=O)N1CCC(C(=O)OC)CC1` as the molecule, how does the Potency read?
Answer: inactive

Question: For `O=C1NC2(CCCCC2)C(=O)N1Cc1cccc(C(F)(F)F)c1`, which Potency is on record?
Answer: inactive

Question: For `COc1ccc(CC(=O)N(CCC2=CCCCC2)c2c(N)n(Cc3ccccc3)c(=O)[nH]c2=O)cc1OC`, which Potency is on record?
Answer: inconclusive [activator, single point]

Question: Which Potency does the source give for `O=C(/C=C\Nc1ccc(S(=O)(=O)Nc2ncccn2)cc1)c1ccccc1` here?
Answer: inconclusive [activator, partial curve, poor fit]

Question: For `CCc1nc(SCC(=O)N2c3ccccc3CC2C)c2c(C)c(C)sc2n1` (configuration not stated), which Potency is on record?
Answer: inconclusive [activator, partial curve, poor fit]

Question: With `CC(C)=CC(=O)OCC(=O)Nc1ccc(SC(F)F)cc1` as the molecule, how does the Potency read?
Answer: inactive

Question: Which Potency does the source give for `O=C1/C(=C/c2ccccc2)CCc2ccc(Cl)nc21` here?
Answer: inconclusive [activator, single point]

Question: With `COc1cc(NC(=O)CSCc2cnn(-c3ccccc3)c2-n2cccc2)cc(OC)c1` as the molecule, how does the Potency read?
Answer: inconclusive [activator, single point]

Question: Which Potency does the source give for `CSc1nc(C(=O)N2CCCC(C(=O)c3ccc(Cl)cc3)C2)cs1` (configuration not stated) here?
Answer: inconclusive [activator, partial curve, poor fit]

Question: Which Potency does the source give for `CCCn1c(C(C)Nc2nc(-c3cc(Cl)c(N)c(Cl)c3)cs2)nc2cc(Cl)c(N3CCCCC3)cc21` (configuration not stated) here?
Answer: inactive

Question: Which Potency does the source give for `COc1cccc(N(C(=O)c2csnn2)C(C(=O)NC2CCCC2)c2ccccc2)c1` (configuration not stated) here?
Answer: inactive

Question: Which Potency does the source give for `Cc1ccc(S(=O)(=O)N(CCCO)CC(O)CON=C2c3ccccc3-c3ccccc32)cc1` (configuration not stated) here?
Answer: active: 18.4 µM

Question: With `OC(CNCC1(N2CCCCC2)CCCCC1)COc1ccc(Cl)cc1Cl` (configuration not stated) as the molecule, how does the Potency read?
Answer: inconclusive [activator, partial curve, poor fit]

Question: With `CCOC(=O)c1sc2nc(N3CCOCC3)c3c(c2c1N)CCN(Cc1ccccc1)C3` as the molecule, how does the Potency read?
Answer: inconclusive [activator, full curve, poor fit]

Question: With `Cc1ccc(C)c(OCc2nc3ccc(S(=O)(=O)Nc4c(C)n(C)n(-c5ccccc5)c4=O)cc3[nH]2)c1` as the molecule, how does the Potency read?
Answer: inactive

Question: For `CC1=C/C(=N\OS(=O)(=O)c2ccccc2)C(C)=CC1=O`, which Potency is on record?
Answer: active: 3.98 µM

Question: Which Potency does the source give for `CC(C)(C)n1cnc2cc(NC(=O)c3cccs3)ccc21` here?
Answer: inactive

Question: For `O=C(Cc1cccc(NC(=O)C2CCCN(C(=O)C3CC3)C2)c1)Nc1ccc(C(=O)N2CCOCC2)cc1` (configuration not stated), which Potency is on record?
Answer: inactive

Question: For `Cc1ccc(N(CC(=O)NCc2ccc3c(c2)OCO3)C(=O)c2csnn2)cc1`, which Potency is on record?
Answer: inconclusive [activator, single point]

Question: For `Cc1cc(S(=O)(=O)Nc2cccc(Cl)c2)c(C)s1`, which Potency is on record?
Answer: inconclusive [activator, single point]

Question: Which Potency does the source give for `CC1(C)C=C2C(=NN(c3ccccc3)C(N)=C2C#N)CO1` here?
Answer: inconclusive [activator, partial curve, poor fit]

Question: For `COc1cc(/C=N/NC(=O)c2ccc(CN3c4cccc5cccc(c45)S3(=O)=O)cc2)cc(OC)c1O`, which Potency is on record?
Answer: active: 16.4 µM

Question: For `N=c1ccn(Cc2ccc(F)cc2)cc1`, which Potency is on record?
Answer: inactive

Question: With `COc1ccc(NC(=O)CSc2c3c(nc4cc(Cl)ccc24)CCCC3)cc1OC` as the molecule, how does the Potency read?
Answer: inconclusive [activator, single point]

Question: Which Potency does the source give for `Cc1ccsc1CN(C)C(=O)CN1C(=O)NC(c2ccccc2)(c2ccccc2)C1=O` here?
Answer: inactive

Question: For `CN1CCN(C(=S)Nc2ccc(Cl)c(Cl)c2)CC1`, which Potency is on record?
Answer: inconclusive [activator, single point]

Question: Which Potency does the source give for `S=C(NCCc1ccccc1)N1CCn2cccc2C1c1ccncc1` (configuration not stated) here?
Answer: inconclusive [activator, partial curve, poor fit]

Question: With `N#CC(Cc1cccc(CC(C#N)(c2ccccc2)c2ccccc2)c1)(c1ccccc1)c1ccccc1` as the molecule, how does the Potency read?
Answer: inconclusive [activator, full curve, poor fit]

Question: Which Potency does the source give for `O=C(Nc1cc(Sc2ccccn2)cc([N+](=O)[O-])c1)c1ccc([N+](=O)[O-])cc1` here?
Answer: inconclusive [activator, single point]

Question: Which Potency does the source give for `CCOc1ccccc1C(=O)OCC(=O)Nc1cccc(S(=O)(=O)NC2=NCCCCC2)c1` here?
Answer: inactive

Question: For `COc1cccc(CN(C)C(=S)Nc2cccc(C)c2)c1`, which Potency is on record?
Answer: inactive

Question: With `N#CC(C#N)=Cc1cn(-c2ncc(C(F)(F)F)cc2Cl)c2ccccc12` as the molecule, how does the Potency read?
Answer: inconclusive [activator, partial curve, poor fit]

Question: With `CC1CCC2C(C1)c1sc(=O)[nH]c1SC2(C)C` (configuration not stated) as the molecule, how does the Potency read?
Answer: inconclusive [activator, single point]

Question: Which Potency does the source give for `Cc1ccc2nc(Cl)c(/C=C/C(=O)c3ccco3)cc2c1` here?
Answer: inconclusive [activator, single point]

Question: For `C=CCN(C(=O)CN1CCCCC1)c1nc(-c2ccccc2)cs1`, which Potency is on record?
Answer: inconclusive [activator, single point]

Question: For `O=C(NCCC1=CCCCC1)c1cc(S(=O)(=O)N2CCOCC2)c(Cl)cc1Cl`, which Potency is on record?
Answer: inconclusive [activator, partial curve, poor fit]

Question: With `O=C(COC(=O)CN1C(=O)C2CCCCC2C1=O)NCc1ccc(Cl)cc1Cl` (configuration not stated) as the molecule, how does the Potency read?
Answer: inactive

Question: Which Potency does the source give for `Cn1c(CN2CCCCC2)nc2cc(NC(=O)c3cccc(Br)c3)ccc21` here?
Answer: inconclusive [activator, single point]

Question: With `CCCCCN(C(=O)CCC(=O)OCc1ccc(C(C)(C)C)cc1)c1c(N)n(CCCC)c(=O)[nH]c1=O` as the molecule, how does the Potency read?
Answer: active: 20.6 µM

Question: Which Potency does the source give for `NC(=O)CSc1oc(-c2ccco2)nc1S(=O)(=O)c1ccc(Br)cc1` here?
Answer: inactive

Question: With `O=C(C1CN(C(=O)c2cc3cc(Cl)ccc3o2)c2ccccc2O1)N1CCCCC1` (configuration not stated) as the molecule, how does the Potency read?
Answer: inconclusive [activator, partial curve, poor fit]

Question: With `Cc1ccc2nc(NC(=O)CCCC(=O)O)sc2c1` as the molecule, how does the Potency read?
Answer: inconclusive [activator, single point]

Question: Which Potency does the source give for `CCc1nnc(NC(=O)c2nc(S(=O)(=O)Cc3cccc(C)c3)ncc2Cl)s1` here?
Answer: inconclusive [activator, full curve, poor fit]

Question: With `CCCOc1ccc(NC(=O)c2cc3cc(C)ccc3[nH]2)cc1` as the molecule, how does the Potency read?
Answer: inactive

Question: With `Cc1onc(-c2c(Cl)cccc2Cl)c1C(=O)N1CCN(c2ccc(F)cc2)CC1` as the molecule, how does the Potency read?
Answer: inconclusive [activator, single point]

Question: For `Cc1cc(C)nc(N/N=C/c2ccccc2OCc2cccc(Br)c2)n1`, which Potency is on record?
Answer: inconclusive [activator, single point]

Question: With `Cc1ccc(NC(=O)c2ccc(=O)[nH]c2)cc1S(=O)(=O)N1CCCCC1` as the molecule, how does the Potency read?
Answer: inconclusive [activator, single point]
